Data as given in PubChem BioAssay (Tox21).
This list was built around the results that the source calls inconclusive (neither active nor inactive); the mix of calls is not that of the screen. Where the call is inconclusive, the potency comes from a doubtful curve fit. Some compounds were tested as several samples or in several runs, with calls that do not always agree. Calls of active or inactive are those of the source. Unless noted, calls follow the shape of the dose curve; as a rule, active = well fitted cell-killing curve with a large enough effect in the repeat runs; inconclusive = weak or mixed curves, or effect the other way; inactive = flat fitted curve, though single readings scatter.

experiment: qHTS assay to identify small molecule antagonists of the TGF-beta/Smad signaling pathway (AID 1346924; active = well fitted inhibition curve with a large enough effect in the signal ratio in the repeat runs, not every such curve was filed as active; inconclusive = weak or mixed curves; the % refers to the signal ratio); details: SBE-bla HEK293T, TGF-beta/Smad reporter, beta-lactamase ratio; activity, negative = inhibition: at 76.8 µM (top of the series) unless noted
In short: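 SBE-bla HEK 293T cells were plated overnight, then received compound in DMSO plus TGF-beta1 (added as a 0.25 ng/mL solution) and were incubated 5 h at 37 C. Beta-lactamase reporter activity was read after 2 h at room temperature with LiveBLAzer B/G FRET substrate (ex 405, em 460/530 nm).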
Potency is read from the fitted curve at half-maximal effect; tags tell the direction and shape of the fitted curve or compound fluorescence and quenching.

Row | SMILES | activity, negative = inhibition | Potency
1 | N#CSc1ccc(N)c([N+](=O)[O-])c1 | inconclusive: -5.99% | –
2 | O=C(O)c1cc(N=Nc2ccc([N+](=O)[O-])cc2)ccc1O | – | inconclusive: 15.2 µM [fluorescent, full curve]
3 | CCC(C)n1ncn(-c2ccc(N3CCN(c4ccc(OC[C@H]5CO[C@](Cn6cncn6)(c6ccc(Cl)cc6Cl)O5)cc4)CC3)cc2)c1=O (stereo not given in full) | inconclusive: -18.7% [at 35.3 µM] | –
4 | OCCN1CCN(CCCN2c3ccccc3Sc3ccc(C(F)(F)F)cc32)CC1 | inconclusive: -14.7% [at 35.3 µM] | –
5 | CNCCCN1c2ccccc2CCc2ccccc21 | inconclusive: 0.978% [at 35.3 µM] | –

experiment: Human pregnane X receptor (PXR) small molecule agonists, qHTS cell viability counter screen (AID 1346977); details: PXR-Luc HepG2 viability, CellTiter-Fluor, 24 h; series mostly up to 92.4 µM; also: nearly all actives have a fitted effect of over 50% in size
In short: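 Measures live-cell protease fluorescence (CellTiter-Fluor) in PXR-Luc HepG2 cells treated 24hr with compounds at 37C. Cells had 5hr to attach before pin transfer of DMSO solutions.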

Row | SMILES | Potency
6 | C#C[C@]1(O)CC[C@H]2[C@@H]3CCc4cc(OC5CCCC5)ccc4[C@H]3CC[C@@]21C | inconclusive: 33.5 µM [cytotoxic, single point]
7 | O=Cc1ccccc1C=O | active: 48.6 µM and inactive
8 | Cc1oc(C)c(C(=O)Nc2ccccc2)c1C | inactive
9 | CN(C)c1ccc(N=Nc2ccccc2C(=O)O)cc1 | active: 61.1 µM
10 | C=C(C)C1CC=C(C)CC1 (stereo not given) | inactive
11 | Clc1ccc2cc3ccccc3cc2c1 | inactive
12 | C1CNCCN1 | inconclusive: 79.4 µM [cytotoxic, partial curve, poor fit]
13 | CCCCCCCCCCCCN1CCCCCC1=O | inconclusive: 68.6 µM [cytotoxic, single point]
14 | N=C1C=CC(=C(c2ccc(N)cc2)c2ccc(N)cc2)C=C1 | active: 8.63 µM
15 | Cc1ccc(NC(=O)c2ccc(CN3CCN(C)CC3)cc2)cc1Nc1nccc(-c2cccnc2)n1 | active: 23.7 µM
